The campaign covered roughly 410,000 compounds. About 6,400 (1.6%) were called active. Inconclusive results, whose numbers are uncertain, are shown with a selection of clear calls. The call rests on the fitted dose curve; in most records, active means well fitted inhibition curve with a large enough effect; inconclusive means small, poorly fitted or top-dose-only effect; inactive means no such curve, though single readings can be large or run the other way. No potency is given beside an inconclusive call; the fits are too rough.
Target: Glucagon-like peptide 1 receptor (Homo sapiens) (UniProt P43220)
Chain of UniProt P43220 (P43220 whole entry, looked up): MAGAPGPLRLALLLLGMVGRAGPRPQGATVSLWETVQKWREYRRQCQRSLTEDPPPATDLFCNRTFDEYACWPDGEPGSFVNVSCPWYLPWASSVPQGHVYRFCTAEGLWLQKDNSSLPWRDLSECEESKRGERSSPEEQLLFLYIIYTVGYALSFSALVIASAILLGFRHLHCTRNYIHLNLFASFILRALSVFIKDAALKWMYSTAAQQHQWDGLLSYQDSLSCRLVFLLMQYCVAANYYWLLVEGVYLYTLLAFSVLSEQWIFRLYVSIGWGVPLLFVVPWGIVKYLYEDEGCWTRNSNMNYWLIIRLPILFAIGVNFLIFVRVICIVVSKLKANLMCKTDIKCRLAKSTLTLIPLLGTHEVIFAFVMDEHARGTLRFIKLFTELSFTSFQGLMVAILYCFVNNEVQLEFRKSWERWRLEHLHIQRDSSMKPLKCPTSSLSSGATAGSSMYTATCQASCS
Assay: qHTS of GLP-1 Receptor Inverse Agonists (Inhibition Mode); further: nearly all actives have a fitted effect of over 55% in size
Conditions: HEK293 GLP-1R CRE-luciferase, luminescence, 24 h, GLP-1R form is constitutively active; series mostly up to 38.3 µM
In short: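 GLP-1R inverse agonism mode: basal reporter luminescence in engineered HEK293 cells measured after one day of compound exposure at 37 deg C, with a 12 min room-temperature detection step.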
Potency means the concentration at half of the fitted maximal effect; tags describe the fitted curve by direction and shape.

SMILES | Potency
C[C@H](CO)N1C[C@H](C)[C@@H](CN(C)S(=O)(=O)c2ccccc2)Oc2c(NC(=O)Nc3ccc(C(F)(F)F)cc3)cccc2C1=O | inconclusive [inhibitor, partial curve, poor fit]
Cc1cc(C)cc(NC(=O)CSc2nnc(CNC(=O)c3c(F)cccc3Cl)o2)c1 | inactive
COc1cccc(-c2nc(N3CCN(C)CC3)c3ccccc3n2)c1O | inconclusive [inhibitor, single point]
CN(C(=O)CN1CCN(c2cc(-c3ccc(OCc4ccccc4)cc3)ncn2)CC1)c1ccccc1 | inconclusive [inhibitor, partial curve, poor fit]
COC(=O)c1cc2oc(C)cc2n1Cc1ccc(C)cc1 | inconclusive [inhibitor, partial curve, poor fit]
O=C(NCCOc1ccccc1)C(=O)c1c[nH]c2ccccc12 | inconclusive [inhibitor, single point]
OC(c1ccccc1)c1ncc(-c2cccc(OCc3ccccc3)c2)[nH]1 (centres undefined) | inconclusive [inhibitor, single point]
N#C/C(=C/c1ccc(N2CCCCCC2)o1)c1ccc(F)cc1 | inconclusive [inhibitor, single point]
COc1ccc([C@H]2CC(=O)C=C(c3ccc(OC(F)(F)F)cc3)C2)cc1 | inconclusive [inhibitor, single point]
CCC(=O)C1=C(c2ccc(F)cc2)N(C(=O)CC)n2c(nnc2C2CCCCC2)S1 | inactive
Cc1ccc2nc(-c3ccc(NC(=O)C4CCCO4)cc3)[nH]c2c1 (centres undefined) | active: 7.94 µM
O=C(CN1CCc2ccccc21)NC(=O)NCc1ccccc1 | inconclusive [inhibitor, partial curve, poor fit]
O=C(c1ccc(S(=O)(=O)N2CCCC2)cc1)N1CCN(Cc2ccc3c(c2)OCO3)CC1 | inconclusive [inhibitor, partial curve, poor fit]
Cc1ccc(S(=O)(=O)N2C[C@@H]3[C@H]4CC[C@H](C4)[C@@H]3[C@@H](C)[C@@H]2c2cn(Cc3ccccc3)c3ncccc23)cc1 | inconclusive [inhibitor, single point]
CC(=O)N(c1ccc2oc(=O)sc2c1)S(=O)(=O)c1ccc(C)cc1 | inconclusive [inhibitor, single point]
O=C(NNC1=Nc2ccccc2SC1)c1ccccc1F | inconclusive [inhibitor, single point]
S=C(NCc1ccccc1)N1CCN(c2ccccc2)CC1 | inconclusive [inhibitor, partial curve]
O=C(NCc1cccnc1)C1CCN(Cc2cc3ccccc3n2Cc2ccccc2)CC1 | inactive
COc1ccc(-c2ccccc2)cc1NCc1ccccc1C | inconclusive [inhibitor, partial curve, poor fit]
CCN(C(=O)c1ccncc1)c1c(N)n(Cc2ccccc2)c(=O)[nH]c1=O | inactive

SMILES | Potency
CC(C)c1ccc(-c2noc(SCC(=O)N(C)c3ccc(F)cc3)n2)cc1 | inconclusive [inhibitor, single point]
Cn1c(N)c(C(=O)COC(=O)C2(c3cccc(F)c3)CCCC2)c(=O)n(C)c1=O | inconclusive [inhibitor, partial curve, poor fit]
COc1cccc(CC2(CO)CCCN(Cc3ccc(OC(F)F)cc3)C2)c1 (centres undefined) | inconclusive [inhibitor, single point]
CC(=O)N1CCCc2ccc(NC(=O)c3ccc(C(F)(F)F)cc3)cc21 | inactive
COc1ccccc1OCCCn1c(C)c(C#N)c2ccccc21 | inconclusive [inhibitor, single point]
CCc1ccc(NC(=O)COC(=O)/C(=C/c2ccccc2OC)c2ccccc2)cc1 | inconclusive [inhibitor, single point]
Cc1cc(C(=O)COc2ccc(F)cc2Br)c(C)n1C1CC1 | inconclusive [inhibitor, partial curve, poor fit]
COc1ccc(Oc2ccc(/C=C/C(=O)c3ccc(O)cc3)cc2[N+](=O)[O-])cc1 | inconclusive [inhibitor, single point]
Cc1ccc2nc(-c3ccccc3)c(-c3ccccc3)nc2c1 | inconclusive [inhibitor, partial curve]
CCN(CC)S(=O)(=O)c1ccc(/C=C/C(=O)Nc2ccc(F)cc2F)cc1 | inconclusive [inhibitor, partial curve, poor fit]
CC(C)N1CCN(C(=O)c2ccc(OC3CCN(CCc4ccccc4)CC3)cc2)CC1 | inconclusive [inhibitor, partial curve, poor fit]
CC(NC(=O)c1cccc2ccccc12)c1ccc2c(c1)CCCC2 (centres undefined) | inconclusive [inhibitor, single point]
O=C(NCc1ccccc1Cl)C(=O)NCC(c1cccs1)S(=O)(=O)c1ccccc1 (centres undefined) | inconclusive [inhibitor, partial curve, poor fit]
COC(=O)Cn1cc(/C=C/[N+](=O)[O-])c2ccccc21 | inconclusive [inhibitor, single point]
CCN(Cc1ccc(NC(C)=O)cc1)CC1CCCN(CCc2cccc(F)c2)C1 (centres undefined) | inconclusive [inhibitor, single point]
O=c1cc(CN2CCN(C/C=C/c3ccccc3)CC2)c2cc(O)ccc2o1 | inconclusive [inhibitor, partial curve, poor fit]
Cc1ccc(C)c(NC(=O)CCN2CCN(C)CC2)c1 | inactive
Cc1[nH]n(-c2ccccc2)c(=O)c1/C=N/N(C)c1ccccc1 | inactive
CSCC[C@H](NC(=O)N1CCn2c1nc1ccccc12)C(=O)NC1CCCCC1 | inconclusive [inhibitor, partial curve, poor fit]

From PubChem BioAssay AID624417 (National Center for Advancing Translational Sciences (NCATS), 2012)
